Patent US7432045B2 (priority 2003, dated 2008)
Read-outs that look alike come from different tables or passages of the source. At least one peptide structure holds a part that was inferred or is arguable (an end, a ring closure or a residue). Some results were stated once for a whole list of compounds, not compound by compound. Peptide text beside a SMILES is read from it. * marks the point of attachment. Biotin = O=C1N[C@H]2[C@H](CS[C@H]2CCCCC(=O)*)N1; Ahx = NCCCCCC(=O)O

Key:
HSV-1 = assay: Anti-free virus activity; type: cell-based
HSV-1 KOS mutant hrR3 = assay: LacZ+ virus (hrR3) entry assay with pre-adsorbed virus (entry block); type: cell-based; details: read-out: Entry Blocking Activity IC50
Protocol: LacZ^+ virus (hrR3) entry assay: Confluent Vero cell cultures in 96-well microtiter plates were switched to Hepes-buffered serum-free DMEM, cooled on ice to 4° C. for 30 min, and infected with hrR3 for 1 hour at 4° C. in 40 μL of medium. Unattached virus was removed by rinsing with ice-cold medium. Treatments with antiviral peptide SEQ ID NO:1, referred to as EB, or a control peptide which comprised the RRKK tetra-peptide (SEQ ID NO:16) attached to a scrambled version of the membrane transiting peptide RRKKLAALPLVLAAPLAVLA (SEQ ID NO:17) (referred to as EBX), or mock-treatments with peptide-free medium were carried out in serum-free DMEM as indicated. Virus entry was initiated by transferring cultures to 37° C. To inactivate any remaining extracellular virus, cultures were rinsed with PBS and exposed to low pH citrate buffer (40 mM citric acid, 10 mM KCl, 135 mM NaCl, pH 3.0, according to Highlander et al., J. Virol. 61:3356 (1987), for 1 min at 23° C. The citrate was rinsed off with PBS and cultures were maintained in serum-supplemented DMEM until they were fixed with 0.5% gluteraldehyde in 5×PBS for 30 min at 23° C., stained for β-galactosidase activity for 1 hour or overnight at 23° C. with X-gal (Fisher Biotech; BP1615-1) in 1×PBS containing […], 1.3 mM K4Fe(CN)6, and 1.3 mM K3Fe(CN)6, and scored for the presence of blue […] cells.
In these studies, the hrR3 virus was pre-adsorbed to cells for 1 hour at 4° C. before ice cold 25 μM EB or EBX were added in serum-free DMEM. After an additional 1 hour at 4° C., cultures were shifted to 37° C. to initiate virus entry. At 15 min intervals following the temperature shift, any virus remaining outside the cells was inactivated by washing the cultures with low pH citrate buffer. Cultures were then rinsed and returned to peptide-free serum-supplemented DMEM until they were fixed and stained for β-galactosidase 8 hours after the temperature shift.
Two assays were used to assess the ability of the TAT peptides to inhibit infection of Vero cells with the hrR3 virus. In both assays, the virus was preadsorbed to cells at 4° C. and entry was initiated in the presence of peptide by shifting the cultures to a permissive temperature (30-37° C.). One hour later, the peptide was rinsed off. The entry blocking activity was measured in half of the cultures, in which any extracellular virus remaining after the peptide treatment was inactivated with low pH citrate buffer. The rest of the cultures were exposed to PBS instead of citrate buffer and used to measure virus inactivation. Virus inactivation depended on persistent effects of the peptide lasting for a period of eight hours. At the end of that period, all cultures were fixed and infected cells were detected by staining with X-gal.
Virus (m.o.i.=0.025) was preadsorbed to Vero cells for 1 h at 4° C. before cultures were exposed to TAT-C (FIG. 15A), bTAT-9X (FIG. 15B), or n50,51TAT-C (FIGS. 15C, 15D) for 1 h at 33 (FIGS. 15A, 15B), 31 (FIG. 15C), or 37° C. (FIG. 15D). […] Inhibition of entry was measured in the citrate-treated cultures, in which any remaining external virus was inactivated immediately following exposure to peptide (●). Persistent virus inactivation lasting, at least in part, for the 8 h period following exposure to peptide, was measured in the PBS-treated cultures (◯). The IC50s measured in these experiments are included in Table 5.

hrR3 virions = assay: Trypsinization of peptide-treated virions; type: cell-based, HSV-1
hrR3 = assay: Virucidal assay; type: cell-based, HSV-1
Protocol: […] The treated virus was diluted 200-fold with serum-supplemented DMEM and assayed for infectivity approximately 1 hour later in microtiter wells seeded with Vero cells (3.5×10^4 cells/well) 1 d earlier. Forty or 100 microliter volumes of diluted virus were adsorbed for 1 or 2 h at 37° C. and lacZ^+ cells were scored 8 hours later. In some experiments, aliquots of diluted virus were first dialyzed (Spectra/Por; MWCO 12-14,000) overnight at 4° C. against a 60-fold excess volume of Hepes-buffered serum-supplemented DMEM or forced by syringe through 0.22 μm membranes (Millex-GV; Millipore) before the remaining infectious virus was assayed.

trypsin = biological target: T1, trypsin (Sus scrofa, UniProt P00761); assay: Trypsinization of peptides; details: 0.005 or 0.01% trypsin, 1 h at 37° C.
T1 construct: purchased BioWhittaker 17-160E
T1 sequence (P00761 9-231): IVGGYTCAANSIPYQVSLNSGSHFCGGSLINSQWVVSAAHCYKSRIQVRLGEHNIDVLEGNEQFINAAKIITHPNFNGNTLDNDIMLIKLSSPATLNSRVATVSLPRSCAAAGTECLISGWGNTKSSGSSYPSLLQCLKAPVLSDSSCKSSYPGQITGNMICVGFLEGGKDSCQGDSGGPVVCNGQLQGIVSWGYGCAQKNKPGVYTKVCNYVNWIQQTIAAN
Protocol: Trypsinization of peptides: Peptides dissolved in serum-free DMEM were exposed to 0.005 or 0.01% trypsin for 1 h at 37° C. The trypsin was then inactivated with a 1.3-fold molar excess of soybean trypsin inhibitor and the ability of the peptides to inactivate virions was tested as described above (centrifugation assay). In controls, trypsin was inactivated before it was added to the peptides.
In Panel B, peptides in serum-free medium were pre-treated with active trypsin (open bars) or inactivated trypsin (shaded bars) for 1 h at 37° C. before they were added to virions for 1 h at 37° C. (see Example 1). The treated virions were then pelleted and resuspended in serum-supplemented medium and assayed for infectivity without further trypsinization. The peptide concentrations were as high or higher than those used in Panel A: […] TAT-C, 50 μM bKLA, 200 μM EB and bHOM-9. Trypsin concentrations used in both Panels A and B, were 0.005% (for bKLA, EB and bHOM-9) or 0.01% (for TAT-C and the ‘no peptide’ control).

HSV-1 KOS = assay: Plaque reduction assay; type: cell-based
Protocol: Cell culture and virus: The procedures for growing Vero cells and preparing high titer stocks of HSV-1 KOS as described in Grau et al., Invest. Ophthal. and Vis. Sci. 30: 2474 (1989) were utilized. Vero cells were maintained in carbonate-buffered DMEM supplemented with 5% calf serum and 5% fetal bovine serum (regular medium). For some studies, cells were switched to serum-free DMEM buffered with 25 mM HEPES (pH 7.4) and allowed to adapt to that medium for 30 min prior to experimental treatments. Vero cells were seeded into wells (0.28 cm^2) of microtiter plates either at 3.5×10^4 cells/well for use 1 day later (8×10^4 cells/well) or at 1×10^4 cells/well for use 3 days later (2×10^5 cells/well).
Plaque reduction assay: Confluent Vero cell cultures in microtiter plates were infected for 1 hour at 37° C. in 40 μL of medium. Except where indicated, peptide treatments in 40 μL of medium lasted from 1 hour before through 1 hour after infection. […] Plaque formation was scored 2 days later and the number of plaques scored per well was normalized to the number counted in the absence of peptide. Using an ocular micrometer, plaque size (π/2×L×S) was determined by measuring the largest plaque diameter (L) and the diameter at a 90° angle to that (S). The size of each of the first 40 scored plaques was measured except when a plaque included less than 10 rounded cells or touched the side of the well.

[1] = test system: Influenza virus strain PR8; design: species or system mice; details: mouse, in vivo
[2] = test system: influenza A virus (Sydney 05/97,H3N2)
[3] = 37° C., read-out: Virucidal Activity 37° C. IC50
[4] = 4° C., read-out: Virucidal Activity 4° C. IC50

Structure (SMILES) | IC50 (HSV-1) | IC50 (HSV-1 KOS mutant hrR3) | effect of trypsin on infectivity of peptide-treated virions (hrR3 virions) | Virucidal Activity 4° C. IC50 (hrR3; 4° C.) | IC50 (hrR3; [3]) | effect of trypsinization of the peptide on its antiviral activity (trypsin) | antiviral activity compared to EB (HSV-1 KOS) | IC50 (hrR3; [4]) | mice protected [1] | mice still alive on day 8 after infection [1] | infection with influenza A virus blocked [2]
CC[C@H](C)[C@H](NC(=O)[C@H](CCCCN)NC(=O)[C@@H](NC(=O)[C@H](CCC(N)=O)NC(=O)[C@H](CCCNC(=N)N)NC(=O)CCCCCNC(=O)CCCC[C@@H]1SC[C@@H]2NC(=O)N[C@@H]21)[C@@H](C)CC)C(=O)N[C@@H](Cc1c[nH]c2ccccc12)C(=O)N[C@@H](Cc1ccccc1)C(=O)N1CCC[C@H]1C(=O)N[C@@H](CC(N)=O)C(=O)N[C@@H](CCCNC(=N)N)C(=O)N[C@@H](CCCNC(=N)N)C(=O)N[C@@H](CCSC)C(=O)N[C@@H](CCCCN)C(=O)N[C@@H](Cc1c[nH]c2ccccc12)C(=O)N[C@@H](CCCCN)C(=O)N[C@@H](CCCCN)C(=O)N1CCC[C@H]1C(=O)NCC(=O)N[C@@H](Cc1ccc(O)cc1)C(=O)N[C@@H](C)C(=O)NCC(=O)N[C@@H](C)C(=O)N[C@H](C(=O)N[C@H](C(=O)N[C@@H](CC(N)=O)C(=O)N[C@@H](CC(=O)O)C(=O)N[C@@H](CC(C)C)C(=O)O)C(C)C)C(C)C [bHOM-9, b - RQIKIWFPNRRMKWKK-9] ({Biotin-Ahx}-RQIKIWFPNRRMKWKKPGYAGAVVNDL-OH) | 6 µM | 9 to 12 µM | did not have any effect | None | 115 µM | completely abolished their antiviral activity |  |  |  |  | 
CC(C)C[C@H](NC(=O)[C@H](C)NC(=O)[C@H](CC(C)C)NC(=O)[C@H](CC(C)C)NC(=O)[C@@H](NC(=O)[C@H](C)NC(=O)[C@@H]1CCCN1C(=O)[C@H](CC(C)C)NC(=O)[C@H](CC(C)C)NC(=O)[C@H](C)NC(=O)[C@@H](NC(=O)[C@H](C)NC(=O)[C@H](C)NC(=O)[C@H](CCCCN)NC(=O)[C@H](CCCCN)NC(=O)[C@H](CCCNC(=N)N)NC(=O)[C@H](CCCNC(=N)N)NC(=O)CCCCCNC(=O)CCCC[C@@H]1SC[C@@H]2NC(=O)N[C@@H]21)C(C)C)C(C)C)C(=O)N[C@@H](CC(C)C)C(=O)N[C@@H](C)C(=O)N1CCC[C@H]1C(=O)O [bEB] ({Biotin-Ahx}-RRKKAAVALLPAVLLALLAP-OH) | 21 µM | 15 µM |  |  | 35 µM |  | essentially as effective as EB | 110 µM |  |  | 
CC(C)C[C@H](NC(=O)[C@H](C)NC(=O)[C@H](CCCCN)NC(=O)[C@H](CC(C)C)NC(=O)[C@H](C)NC(=O)[C@H](CC(C)C)NC(=O)[C@H](CCCCN)NC(=O)[C@H](CC(C)C)NC(=O)[C@H](C)NC(=O)[C@H](CC(C)C)NC(=O)[C@H](CCCCN)NC(=O)CCCCCNC(=O)CCCC[C@@H]1SC[C@@H]2NC(=O)N[C@@H]21)C(=O)N[C@@H](CCCCN)C(=O)N[C@@H](C)C(=O)N[C@@H](C)C(=O)N[C@@H](CC(C)C)C(=O)N[C@@H](CCCCN)C(=O)N[C@@H](CC(C)C)C(=O)N[C@@H](C)C(N)=O [bKLA, b - KLALKLALKALKAALKLA-amide] | 4.5 µM | 11 µM | did not have any effect |  | 15 µM | completely abolished their antiviral activity |  | 45 µM | 80% | 40% | > 80%
